Experimental data reported in PubChem BioAssay AID662 (National Center for Advancing Translational Sciences (NCATS), 2007).
Hit rate of the full screen: of about 71,000 compounds, about 1,800 (2.5%) were called active. Inconclusive means that the source gave no clear call. Such entries were picked first, then a sample of the others. The call rests on the fitted dose curve; in most records, active means well fitted activation curve with a large enough effect in the signal ratio, with a control signal flat (not every such curve was filed as active); inconclusive means small, poorly fitted or top-dose-only effect, or effect the other way, or a change in a side signal; inactive means flat fitted curve, though single readings scatter; the % refers to the signal ratio. Where the call is inconclusive, the potency comes from a doubtful curve fit.

Assay: Cell signaling CRE-BLA (Fsk stim); on activity change, negative = inhibition: % of control where 0% means no effect
Details: CHO CRE-bla reporter (cAMP response element driving beta-lactamase), forskolin EC10, beta-lactamase ratio; activity change, negative = inhibition: at 38.2 µM (top of the series) unless noted
Outline: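 The 460nm/530nm emission ratio after CCF4 loading defined %Activity, from which AC50 values were obtained. CRE-bla CHO cells received compound dilution series together with an EC10 level of NKH 477 for 3 hours at 37 degrees Celsius.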
Potency means the concentration at half of the fitted maximal effect; tags describe the fitted curve by direction and shape.

Compound | activity change, negative = inhibition | Potency
Cc1ccc(-n2nc(C)c3c2OC(N)=C(C#N)C3c2ccoc2)cc1 (stereo unspecified) | inactive: -9.82% | 
CCOc1ccc(C(=O)N2CCN(c3cccc(C)c3C)CC2)cc1 |  | inconclusive: 0.0501 µM [rising, single point]
COC(=O)C1=C(NC(=O)c2cccc(OC)c2)CCS1 |  | inconclusive: 31.6 µM [rising, partial curve, poor fit]
O=C(Cc1ccccc1)N1CCC(c2nc3ccccc3[nH]2)CC1 | inactive: 5.23% | 
O=C(c1cc(C(F)(F)F)cc(C(F)(F)F)c1)N1CCC2(CC1)CCN(c1ccccn1)CC2 | inactive: 3.62% | 
O=C(O)Cc1ccc(NC(=O)c2cccs2)cc1 | inactive: -4.51% | 
CCOC(=O)c1cnc(NCc2ccccc2)nc1C | inactive: 21.8% | 
CCCCC(=O)Nc1ncc(Br)s1 | inconclusive: -11% | 
O=C(O)CCCn1nc(C(F)(F)F)c2c1CCCCC2 | inconclusive: 3.22% | 
COCCNC(=O)c1c[nH]c2cc(OC)c(OC)cc2c1=O | inactive: 25.7% | 
CN1CCN(Cc2nc3c(c(=O)n(C)c(=O)n3C)n2CCc2ccccc2)CC1 |  | inconclusive: 25.1 µM [rising, single point]
O=c1c(-c2ccccc2)nc2cnc(N3CCOCC3)nc2n1CCc1ccccc1 |  | inconclusive: 3.16 µM [rising, partial curve]
Cc1cc(OCC(=O)N2CCOCC2)cc2oc(=O)c3ccccc3c12 |  | inconclusive: 10 µM [rising, partial curve]
COc1cc(NC(=O)CN(c2ccc(C)cc2)S(=O)(=O)c2c(C)nn(C)c2C)cc(OC)c1 | inconclusive: 12.9% | 
CCCOn1nnnc1-c1ccccc1 | inactive: 3.49% | 
c1coc(CNc2ncnc3sc4c(c23)CCCCC4)c1 |  | inconclusive: 3.98 µM [rising, single point]
Cc1cc(C)nc(NS(=O)(=O)c2ccccc2)n1 | inconclusive: 0.732% | 
N#Cc1nc(Cc2cccc3ccccc23)oc1N1CCOCC1 |  | inconclusive: 25.1 µM [rising, single point]
Cc1cc(N=CC2=C(O)CCCC2=O)no1 | inactive: -1.94% | 
O=C(NCC1CCCO1)c1cc2ccccc2[nH]1 (stereo unspecified) | inactive: 7.43% | 
CCOc1ccc(C)cc1S(=O)(=O)n1ccc(C)n1 | inactive: -5.55% | 
O=S(=O)(c1ccccc1)c1nc(-c2cccs2)oc1NCC1CCCO1 (stereo unspecified) | inactive: 12.8% | 
Cc1ccccc1N=C1NC(=O)CS1 | inconclusive: -4.18% | 
O=c1c2ccccc2nc(SCc2cccc(F)c2)n1Cc1ccco1 | inactive: 1.37% | 
COc1ccc(Cn2cccc(NC(=O)Nc3ccc(C#N)cc3)c2=O)cc1 | inconclusive: 9.89% | 
CCNc1ncc2nc(-c3ccc(F)cc3)c(=O)n(CCOC)c2n1 |  | inconclusive: 2.51 µM [rising, partial curve]
